# Experimental data as given in PubChem BioAssay AID488969 (Vanderbilt High Throughput Screening Facility, 2010).
# Whole data set: some 110,000 compounds, median “z-score” near -0.1, cut for the highest 2% near 2. The list shows a part of the results. The source made the active and inactive calls.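 Rule for the calls: active = z-score in the third read window above 3 or below -3; inactive = the rest.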
# Target: Metabotropic glutamate receptor 8 (Rattus norvegicus) (UniProt P70579)
# Assay: mGluR8 Gi/Go-coupled signaling modulation – cell-based, rat, thallium flux, HTS, primary screen (AID 488969)
# Details: HEK293 rat mGluR8, GIRK (G protein-gated inwardly rectifying potassium channel) thallium flux, FluoZin2; at 10 µM; stronger effect = higher value; submaximal glutamate (EC20) added with thallium
# UniProt P70579, sequence (P70579 whole entry, looked up): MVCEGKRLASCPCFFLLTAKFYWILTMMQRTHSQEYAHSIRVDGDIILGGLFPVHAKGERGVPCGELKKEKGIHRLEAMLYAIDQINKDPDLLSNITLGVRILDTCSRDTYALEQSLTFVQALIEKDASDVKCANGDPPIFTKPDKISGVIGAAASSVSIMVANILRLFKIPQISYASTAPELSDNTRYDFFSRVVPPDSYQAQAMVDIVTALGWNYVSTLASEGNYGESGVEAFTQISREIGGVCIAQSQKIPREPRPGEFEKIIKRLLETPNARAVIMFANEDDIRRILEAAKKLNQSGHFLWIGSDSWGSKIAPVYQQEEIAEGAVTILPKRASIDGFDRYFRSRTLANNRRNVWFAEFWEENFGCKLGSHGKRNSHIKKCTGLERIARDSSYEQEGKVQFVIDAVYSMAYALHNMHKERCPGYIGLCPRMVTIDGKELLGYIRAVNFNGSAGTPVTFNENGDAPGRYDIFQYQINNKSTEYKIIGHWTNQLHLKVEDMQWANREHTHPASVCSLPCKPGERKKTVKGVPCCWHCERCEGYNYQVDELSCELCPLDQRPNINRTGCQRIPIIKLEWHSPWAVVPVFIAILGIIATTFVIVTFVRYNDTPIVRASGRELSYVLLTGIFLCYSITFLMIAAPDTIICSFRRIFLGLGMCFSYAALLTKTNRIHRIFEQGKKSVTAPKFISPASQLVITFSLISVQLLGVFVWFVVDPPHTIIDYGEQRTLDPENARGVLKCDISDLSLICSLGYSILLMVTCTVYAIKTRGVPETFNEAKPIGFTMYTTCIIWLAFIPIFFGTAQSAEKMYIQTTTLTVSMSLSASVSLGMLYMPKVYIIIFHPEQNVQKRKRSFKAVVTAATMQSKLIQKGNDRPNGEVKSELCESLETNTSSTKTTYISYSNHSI
row,SMILES,z-score
1,N#Cc1ccc(-c2csc(NC(=O)C3CC3)n2)cc1,-0.464
2,CCCCC(=O)Nc1cccc(-c2cn3ccsc3n2)c1,-0.713
3,CC1CCN(S(=O)(=O)c2cn(CC(=O)N3CCN(C)CC3)c(=O)c3ccccc23)CC1,0.0164
4,Cc1cccc(NC(=S)N(CCN(C)C)Cc2cc3cc(C)cc(C)c3[nH]c2=O)c1,0.0908
5,Cc1nnc(SCCC(=O)Nc2ccc(F)cc2)s1,0.473
6,Cc1csc2nc(CNS(=O)(=O)c3cccnc3)cn12,-0.311
7,O=C(CNC(=O)c1ccc(Cl)cc1)OCc1nc2ccccc2s1,-0.538
8,CCOc1ccc(NCC(=O)Nc2ccc(Cl)cc2C)cc1,-0.235
9,COC(=O)c1ccccc1NC(=O)c1ccc(NS(C)(=O)=O)cc1,-0.0185
10,O=C(Oc1ccccc1C(=O)N1CCOCC1)c1cccc(Br)c1,-1.11
11,COC(=O)CCS(=O)(=O)c1nc(-c2ccccc2)cc(C(F)(F)F)n1,-0.75
12,CN(c1ccccc1C(=O)O)S(=O)(=O)c1ccc2c3c(cccc13)C(=O)N2,0.571
13,COc1ccc(/C=C/C(=O)NNc2c(F)c(F)cc(F)c2F)cc1OC,0.159
14,Cc1ccc2oc(C(=O)Nc3nnc(C)s3)c(C)c2c1,-0.9
15,CC(=O)Nc1ccc(S(=O)(=O)N2CCSC2C(=O)O)cc1 (stereo not drawn),0.392
16,O=C(COC(=O)c1cccc(S(=O)(=O)N2CCc3ccccc32)c1)Nc1ncc(Cl)cc1Cl,-0.543
17,Nc1nc2nc(-c3ccc(OCc4ccccc4)cc3)cc(C(F)(F)F)n2n1,-0.434
18,Cc1nn(C)c(C)c1CN(C)S(=O)(=O)c1ccc2ccccc2c1,-0.0215
19,NS(=O)(=O)c1ccc(NC(=O)C(Sc2ccccc2)c2ccccc2)cc1 (stereo not drawn),-0.39
20,COc1ccc(/C=N/Nc2nncc3ccccc23)cc1,-0.111
21,CCCCCCCCCCNC(=O)CCn1[nH]c(=O)c2ccccc2c1=O,0.387
22,C=CCn1c(SCC(=O)N2CCN(C(=O)c3ccco3)CC2)nc2sc(CC)cc2c1=O,-2.02
23,CCOc1ccc2[nH]c(=O)c(CN(CCO)C(=O)c3ccc(OC)c(OC)c3)cc2c1,0.172

row,SMILES,z-score
1,C=CCn1c(-c2ccc([N+](=O)[O-])cc2)n[nH]c1=S,-0.141
2,CCn1c(SCc2nc3ccccc3c(=O)[nH]2)nc2ccccc2c1=O,-0.672
3,O=C(/C=C/c1c(Cl)cccc1Cl)N1CCN(c2ncccn2)CC1,-0.303
4,O=C(CSc1nc(Nc2ccccc2)nc(N2CCOCC2)n1)Nc1ccc([N+](=O)[O-])cc1,-0.18
5,COc1cc(/C=N/NC(=O)c2sc(N)c(C#N)c2C)ccc1O,-0.0866
6,CCn1c(/C=C/N(C(C)=O)c2ccccc2)[n+](CC)c2ccc(Cl)cc21,-0.116
7,CCCCNC(=O)c1onc(CSc2cc(C)cc(C)c2)c1C(=O)O,-0.0168
8,O=C(c1cccc(F)c1)N1CCN(Cc2c[nH]c3ccccc23)CC1,-0.0568
9,CC(C)CN(C(=O)COC(=O)CCc1c[nH]c2ccccc12)C1CCS(=O)(=O)C1 (stereo not drawn),-0.187
10,COc1ccc(S(=O)(=O)N(C(=O)C(C)C)c2ccc3oc(=O)sc3c2)cc1,0.209
11,COc1ccc(Cl)c(Cn2c(NCCCN(C)C)nc3c2c(=O)n(C)c(=O)n3C)c1,0.0257
12,O=C(NCc1ccco1)c1cccc(NS(=O)(=O)c2ccccc2F)c1,-0.312
13,CS(=O)(=O)N1CCc2cc(C(=O)OCC(=O)c3ccccc3)ccc21,-0.0613
14,CC(C)(C)c1ccc(S(=O)(=O)NCC(=O)Nc2sc3c(c2C(N)=O)CCCC3)cc1,-0.0387
15,O=C(O)CSCNC(=O)CC12CC3CC(CC(C3)C1)C2,-0.152
16,Cc1n[nH]c(=S)c2nn(-c3ccccc3)c(C)c12,-0.174
17,CCOc1ccc(NC(=O)CSc2nnc(-c3ccoc3C)n2CC2CCCO2)cc1 (stereo not drawn),0.377
18,N#Cc1cn(Cc2cccc(Cl)c2)c2ccccc12,0.676
19,Cc1ccc(-c2nc(C3CCN(S(=O)(=O)c4ccc(C(C)(C)C)cc4)CC3)no2)cc1,-0.202
20,O=C(N/N=C/c1ccc(N2CCCCC2)o1)c1ccccc1,0.453
21,COc1cccc(NC(=O)NCCCN2CCN(c3ccc(F)cc3)CC2)c1,-0.617
22,O=C(NCCN1CCOCC1)c1cc(-c2ccc(F)cc2)on1,-0.134
23,COc1ccc(-c2noc(CCC(=O)NC3CCN(Cc4ccccc4)CC3)n2)cc1,0.924

row,SMILES,z-score
1,Cc1ccccc1C(=O)c1c[nH]c(C(=O)NCCCn2ccnc2)c1,-0.531
2,CC(=O)c1c(C)[nH]c(C(=O)COC(=O)CNS(=O)(=O)c2ccccc2)c1C,-0.187
3,O=C(Nc1ccc2c(c1)OCCO2)c1ccncc1,0.327
4,O=C(Nc1ccc(-c2nc3ccccc3s2)cc1)c1cc(-n2cnnc2)ccc1Cl,-0.25
5,COCCn1c(SCC(=O)Nc2cc(Cl)ccc2OC)nc2c(c1=O)SC(C)C2 (stereo not drawn),-1.28
6,C=CCOc1cccc(C2/C(=C(/O)c3ccccc3)C(=O)C(=O)N2CCN2CCOCC2)c1 (stereo not drawn),-0.193
7,CCCn1c(=O)c2ccccc2n2c(SCc3nc4ccccc4s3)nnc12,active: -5.06
8,CN(C)c1ccc(NC(=O)CSc2nnc(-c3cccs3)n2Cc2ccco2)cc1,-0.433
9,O=C(N/N=C/c1cc2c(cc1Cl)OCO2)c1ccccn1,-0.14
10,CC(C)CC1NC(=O)N(CC(=O)N2CCN(S(=O)(=O)c3ccc4ccccc4c3)CC2)C1=O (stereo not drawn),0.0525
11,Cn1c(SCC(=O)Nc2nccs2)nnc1-c1ccco1,-0.369
12,O=C(O)CCC(=O)Nc1ccc(N2CCCCCC2)cc1,0.291
13,c1ccc(Nc2nc(N3CCOCC3)c3ccccc3n2)cc1,-0.226
14,COc1ccc(CCNC(=S)Nc2cccc3ccccc23)cc1,-1.46
15,CC(C)NC(=S)NN(c1ccccc1)c1ccccc1,2.38
16,COc1ccccc1OCC(=O)OC/C(O)=C(\C#N)c1nc2ccccc2[nH]1,-0.615
17,CC(C)OCC(O)CCc1n[nH]c(=S)n1-c1ccccc1 (stereo not drawn),-0.224
18,Cc1nn2c(N3CCN(C(=O)c4ccco4)CC3)cc(C(C)(C)C)nc2c1-c1ccc(Cl)cc1,-0.119
19,S=c1[nH]nc(-c2ccc(Br)cc2)n1Cc1ccco1,2.41
20,O=C(CC1CCCCC1)N1CCN(c2ccccn2)CC1,-0.15
21,CC1CCN(C(=O)CCCNC(=O)Cn2cnc3sc4c(c3c2=O)CCCC4)CC1,0.0698
22,O=C(COC(=O)C1(c2ccccc2F)CCCC1)NCc1ccc2c(c1)OCO2,-0.629
